Measurements from paper PMC3398040.
Results are given in words; binding and its absence hold for the method and conditions named. Binding seen in cells or lysates may run through a third protein. Some binding calls cover weakened binding; strength is not graded here. Tags and fused reporters may be left off the sequences shown.

Assays:
[1] = molecular target: T1, GST-tagged full-length Ddi1 (^GSTFL-Ddi1) (yeast) (UniProt P40087); assay: pull-down; recombinant GST fusion on GSH beads incubated with yeast extract, 4°C, 1-2 h, extract buffer (50 mM Tris-Cl pH 7.5, 150 mM NaCl, 5 mM EDTA, 0.1% NP40); washed with 2.5% Triton X100; Western blot (Figures 1A, 1B, 3A, 5E and 5F, extract alone); only the target purified
T1 sequence: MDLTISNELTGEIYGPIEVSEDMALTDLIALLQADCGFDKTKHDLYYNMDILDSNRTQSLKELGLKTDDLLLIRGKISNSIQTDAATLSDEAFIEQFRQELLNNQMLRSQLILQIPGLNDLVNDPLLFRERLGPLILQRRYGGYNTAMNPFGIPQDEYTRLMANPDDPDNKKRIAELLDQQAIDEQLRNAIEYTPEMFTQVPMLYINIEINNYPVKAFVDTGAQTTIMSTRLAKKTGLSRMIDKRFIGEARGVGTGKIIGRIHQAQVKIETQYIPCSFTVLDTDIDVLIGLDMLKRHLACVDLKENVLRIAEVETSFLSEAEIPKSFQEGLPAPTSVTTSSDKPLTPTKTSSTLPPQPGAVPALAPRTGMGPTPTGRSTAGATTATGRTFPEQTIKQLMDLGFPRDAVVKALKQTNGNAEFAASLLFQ

[2] = molecular target: T2, GST-tagged full-length Ufo1 (^GSTFL-Ufo1) (yeast) (UniProt Q04511); assay: as above
T2 sequence: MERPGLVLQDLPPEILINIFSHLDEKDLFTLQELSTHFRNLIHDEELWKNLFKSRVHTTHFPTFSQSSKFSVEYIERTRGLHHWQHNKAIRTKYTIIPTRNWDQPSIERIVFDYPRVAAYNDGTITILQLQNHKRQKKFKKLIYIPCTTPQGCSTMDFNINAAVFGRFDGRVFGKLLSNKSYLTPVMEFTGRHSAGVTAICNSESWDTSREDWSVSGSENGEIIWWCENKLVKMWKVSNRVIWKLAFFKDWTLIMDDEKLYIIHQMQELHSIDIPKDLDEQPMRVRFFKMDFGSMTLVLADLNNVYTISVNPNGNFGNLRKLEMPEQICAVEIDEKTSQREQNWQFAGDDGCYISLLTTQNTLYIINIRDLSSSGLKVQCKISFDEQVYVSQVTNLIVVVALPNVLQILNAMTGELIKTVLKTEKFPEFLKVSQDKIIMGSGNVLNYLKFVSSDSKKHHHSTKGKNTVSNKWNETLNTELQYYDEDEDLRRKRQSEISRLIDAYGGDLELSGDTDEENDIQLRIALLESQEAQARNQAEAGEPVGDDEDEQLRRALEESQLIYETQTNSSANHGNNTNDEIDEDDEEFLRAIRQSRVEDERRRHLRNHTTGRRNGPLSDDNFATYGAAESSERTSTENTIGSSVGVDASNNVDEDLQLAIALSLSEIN

[3] = molecular target: T3, HIS-tagged core of Ddi1 without the UbL and UbA domains (^HISΔΔDdi1) (yeast) (UniProt P40087); assay: pull-down; HIS-Ddi1 or HIS-ΔΔDdi1 on Ni beads incubated with a constant amount of GFP-Ufo1 yeast extract and x3 the amount of GST-Rpn1 lysate (Figure 5B); only the target purified
T3 sequence: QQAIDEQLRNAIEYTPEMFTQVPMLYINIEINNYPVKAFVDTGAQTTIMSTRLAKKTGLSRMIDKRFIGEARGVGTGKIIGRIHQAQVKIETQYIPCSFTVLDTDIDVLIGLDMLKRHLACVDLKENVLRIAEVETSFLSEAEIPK

[4] = molecular target: T4, HIS-tagged Ddi1 (^HISDdi1) (yeast) (UniProt P40087); assay: as above
T4 sequence: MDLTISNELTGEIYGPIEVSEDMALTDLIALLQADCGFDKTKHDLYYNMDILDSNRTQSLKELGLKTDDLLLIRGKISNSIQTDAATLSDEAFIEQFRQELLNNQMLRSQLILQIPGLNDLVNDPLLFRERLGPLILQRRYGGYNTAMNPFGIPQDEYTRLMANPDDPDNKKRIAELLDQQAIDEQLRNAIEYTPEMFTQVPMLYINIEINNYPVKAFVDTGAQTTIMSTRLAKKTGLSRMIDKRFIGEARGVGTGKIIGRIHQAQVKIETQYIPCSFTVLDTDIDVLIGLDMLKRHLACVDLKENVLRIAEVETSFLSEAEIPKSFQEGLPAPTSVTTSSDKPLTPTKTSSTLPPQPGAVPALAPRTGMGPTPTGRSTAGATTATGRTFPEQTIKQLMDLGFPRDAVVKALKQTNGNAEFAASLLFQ

[5] = molecular target: T4, HIS-tagged Ddi1 (^HISDdi1) (yeast); assay: pull-down; HIS-Ddi1 on Ni beads incubated with one lysate or extract alone (GST-Rpn1 or GST-Ufo1 bacterial lysate, GFP-Ho or GFP-Ufo1 yeast extract); washed with 2.5% Triton X100 and 100 mM imidazole (Figure 5A lanes 4-6, Figure 5B lanes 3 and 4); only the target purified
[6] = molecular target: T4, HIS-tagged Ddi1 (^HISDdi1) (yeast); assay: condition: only with GST-Rpn1 lysate at x1 or x2 as competitor; pull-down; HIS-Ddi1 on Ni beads incubated with Ufo1 (GST-Ufo1 lysate or GFP-Ufo1 extract) together with GST-Rpn1 lysate at x1 or x2, no Ho (Figure 5A lane 7, Figure 5B lanes 5 and 6, Figure 5C); only the target purified

B1: GFP-tagged full-length Ufo1 (^GFPFL-Ufo1) (protein, UniProt Q04511 1-668)
chain: MERPGLVLQDLPPEILINIFSHLDEKDLFTLQELSTHFRNLIHDEELWKNLFKSRVHTTHFPTFSQSSKFSVEYIERTRGLHHWQHNKAIRTKYTIIPTRNWDQPSIERIVFDYPRVAAYNDGTITILQLQNHKRQKKFKKLIYIPCTTPQGCSTMDFNINAAVFGRFDGRVFGKLLSNKSYLTPVMEFTGRHSAGVTAICNSESWDTSREDWSVSGSENGEIIWWCENKLVKMWKVSNRVIWKLAFFKDWTLIMDDEKLYIIHQMQELHSIDIPKDLDEQPMRVRFFKMDFGSMTLVLADLNNVYTISVNPNGNFGNLRKLEMPEQICAVEIDEKTSQREQNWQFAGDDGCYISLLTTQNTLYIINIRDLSSSGLKVQCKISFDEQVYVSQVTNLIVVVALPNVLQILNAMTGELIKTVLKTEKFPEFLKVSQDKIIMGSGNVLNYLKFVSSDSKKHHHSTKGKNTVSNKWNETLNTELQYYDEDEDLRRKRQSEISRLIDAYGGDLELSGDTDEENDIQLRIALLESQEAQARNQAEAGEPVGDDEDEQLRRALEESQLIYETQTNSSANHGNNTNDEIDEDDEEFLRAIRQSRVEDERRRHLRNHTTGRRNGPLSDDNFATYGAAESSERTSTENTIGSSVGVDASNNVDEDLQLAIALSLSEIN
modifications: ubiquitylated as produced in yeast (sites not given)
binding [1]: binds
binding [2]: binds
binding [3]: binds weakly
binding [4]: binds
binding [5]: binds
binding [6]: no binding
